{"source": "PubChem BioAssay AID504832", "about": "(National Center for Advancing Translational Sciences (NCATS), 2011)", "note": "The campaign covered roughly 310,000 compounds. About 18,000 (5.8%) were called active. The inconclusive results got no clear call from the source; some entries with a clear call stand among them for comparison. Calls come from the whole dose curve; as a rule, active = well fitted inhibition curve with a large enough effect; inconclusive = small, poorly fitted or top-dose-only effect, or another doubt; inactive = no such curve, though single readings can be large or run the other way. Potencies of inconclusive entries are left out as doubtful fits. % is set by controls: 0 for no effect and ±100 for the full control effect; potency is the fitted concentration of half-maximal effect; tags give direction and shape of the fitted curve."}
{"experiment": "Primary qHTS for delayed death inhibitors of the malarial parasite plastid, 48 hour incubation", "details": "P. falciparum luciferase growth in erythrocytes; series mostly up to 28.7 µM; activity change, negative = inhibition: at the top concentration", "summary_of_the_method": "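A one-generation exposure of luciferase-tagged malaria parasites in RPMI 1640/Albumax erythrocyte culture, 37 C and 5% CO2. Inhibition is inferred from decreased luminescence after adding detection reagent.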"}
{"compound": "CCOC(=O)c1c(/N=C/c2cc(C)ccc2O)sc2c1CCN(C)C2", "activity change, negative = inhibition": "inactive: -19.1%"}
{"compound": "O=C(c1ccc(Cl)c(S(=O)(=O)N2CCCCCC2)c1)N1CCN(c2ccccc2O)CC1", "Potency": "inconclusive [inhibitor, single point]"}
{"compound": "Cc1ccc(CN2C(=O)CCC2C(=O)NCCN2CCN(c3cccc(Cl)c3)CC2)cc1", "note": "(stereo not drawn)", "Potency": "inconclusive [inhibitor, single point]"}
{"compound": "CC1CCN(C(=O)CN2C(=O)C(C)(C)Oc3ccc(C(=O)NC4CCCC4)cc32)CC1", "Potency": "inconclusive [inhibitor, single point]"}
{"compound": "O=C1C=C(NCc2ccccc2)c2ccccc2C1=O", "Potency": "inconclusive [inhibitor, full curve, poor fit]"}
{"compound": "c1cnc2ccc(C(c3nnnn3C3CCCC3)N3CCSCC3)cc2c1", "note": "(stereo not drawn)", "Potency": "inconclusive [inhibitor, single point]"}
{"compound": "O=C(CSc1nnc(N2CCCC2)n1-c1ccccc1Cl)N1CCN(c2ccccn2)CC1", "Potency": "inconclusive [inhibitor, single point]"}
{"compound": "OCCCCCN=c1cc(-c2ccccc2)oc2ccc(Cl)cc12", "Potency": "inconclusive [inhibitor, single point]"}
{"compound": "CCOc1ccc2nc(Cl)c(CN(C(=O)c3cnccn3)C3CCCC3)cc2c1", "Potency": "inconclusive [inhibitor, single point]"}
{"compound": "Cc1ccccc1Nc1nc(CSc2nnc(-c3ccoc3C)n2C)cs1", "activity change, negative = inhibition": "inactive: -68.3%"}
{"compound": "N#Cc1c(N)nc2c(c1-c1cccs1)CCCC2", "activity change, negative = inhibition": "inactive: 6.15%"}
{"compound": "COC(=O)c1nc2n(n1)C(c1ccc(OC)c(OC)c1OC)C1=C(CCCC1=O)N2", "note": "(stereo not drawn)", "Potency": "inconclusive [inhibitor, single point]"}
{"compound": "Cc1ccccc1C(=O)N1CCN(c2ccc(NC(=O)CSc3ccc(Cl)cc3)cc2)CC1", "Potency": "inconclusive [inhibitor, single point]"}
{"compound": "CCOc1cc(/C=N/NC(N)=O)cc(Br)c1OCc1ccccc1F", "activity change, negative = inhibition": "inactive: -13%"}
{"compound": "Cc1ccc(-c2nnc(Nc3ccc(CC(N)=O)cc3)c3ccccc23)cc1", "Potency": "inconclusive [inhibitor, partial curve]"}
{"compound": "O=C(NCc1cccs1)C1CCCN1C(=O)Nc1cccc(Cl)c1", "note": "(stereo not drawn)", "Potency": "inconclusive [inhibitor, partial curve, poor fit]"}
{"compound": "CCCS(=O)(=O)c1c(S(=O)(=O)CCC)c2cc(-c3ccncc3)ccn2c1C(=O)OC", "Potency": "inconclusive [inhibitor, partial curve]"}
{"compound": "Cc1cc(=O)n2nc(N3CCC(C(=O)NCc4cccc(Br)c4)CC3)sc2n1", "Potency": "inconclusive [inhibitor, partial curve, poor fit]"}
{"compound": "O=C(COC(=O)c1c[nH]c2ccccc12)NC1CCCC1", "activity change, negative = inhibition": "inactive: 12.9%"}
{"compound": "CN1CCN(S(=O)(=O)c2ccc(N3CCN(c4ccccc4Cl)CC3)nc2)CC1", "Potency": "inconclusive [inhibitor, single point]"}
{"compound": "CC(Sc1ccccc1)C(=O)NNC(=O)c1ccncc1", "note": "(stereo not drawn)", "activity change, negative = inhibition": "inactive: 0.26%"}
{"compound": "CC1(C)N=C(c2ccc(Cl)cc2)C(=O)N1", "activity change, negative = inhibition": "inactive: 1.27%"}
{"compound": "O=C(NC(=S)Nc1ccc(NC(=O)c2cccs2)cc1)c1ccco1", "Potency": "active: 1.65 µM"}
{"compound": "Cc1nn(-c2ccccc2)c(N2CCCC2)c1/C=N/NC(=O)c1cc(-c2ccccc2)nc2ccccc12", "Potency": "inconclusive [inhibitor, partial curve, poor fit]"}
{"compound": "COc1ccccc1C(=O)NNC(=O)c1ccccc1F", "activity change, negative = inhibition": "inactive: 192%"}
{"compound": "CCOC(=O)C(Cc1ccccc1)NC(=O)Cn1nnc(-c2ccc(SC)cc2)n1", "note": "(stereo not drawn)", "activity change, negative = inhibition": "inactive: -10.3%"}
{"compound": "COc1ccc(C(=O)Nc2cc(C)nn2-c2ccc(F)cc2)cc1", "activity change, negative = inhibition": "inactive: -13.3%"}
{"compound": "Cc1cc(/C=C(\\C#N)C(N)=O)c(C)n1-c1ccc(N2CCOCC2)c([N+](=O)[O-])c1", "Potency": "inconclusive [inhibitor, single point]"}
{"compound": "CN(CC(=O)Nc1c(Cl)cccc1Cl)C(=O)Cn1[nH]c(=O)c2ccccc2c1=O", "Potency": "inconclusive [inhibitor, partial curve, poor fit]"}
{"compound": "COC(=O)c1cc2ccsc2n1Cc1ccccc1F", "activity change, negative = inhibition": "inactive: 22.3%"}
{"compound": "COc1ccc2oc(=O)c(/C(C)=N/Nc3ccccc3)cc2c1", "activity change, negative = inhibition": "inactive: 16.9%"}
{"compound": "Cc1cc(OCC(=O)Nc2ccccc2N2CCOCC2)c(C(C)C)cc1Cl", "Potency": "inconclusive [inhibitor, partial curve, poor fit]"}
{"compound": "CCN1CCN(c2ccc(S(=O)(=O)N3CCCCC3)cc2NC(=O)c2cccc(Cl)c2)CC1", "Potency": "inconclusive [inhibitor, single point]"}
{"compound": "COC(=O)C1(CC2CC(c3cccc(Br)c3)=NO2)CCN(C(=O)OC(C)(C)C)CC1", "note": "(stereo not drawn)", "Potency": "inconclusive [inhibitor, single point]"}
{"compound": "CC1CN(O)C2CCc3c(no[n+]3[O-])C12O", "note": "(stereo not drawn)", "activity change, negative = inhibition": "inactive: 14.3%"}
{"compound": "CCCNC(=O)c1nn2c(C(F)(F)F)cc(-c3ccccc3)nc2c1Br", "Potency": "inconclusive [inhibitor, partial curve, poor fit]"}
{"compound": "COc1ccc(-n2c(/C=C/c3ccc4c(c3)OCO4)nc3ccccc3c2=O)cc1", "Potency": "inconclusive [inhibitor, single point]"}
{"compound": "O=C(CCc1ccccc1)NNC(=O)Nc1ccc(Br)cc1", "activity change, negative = inhibition": "inactive: 20.9%"}
{"compound": "Cc1ccc(C(=O)Nc2nc3n(n2)C(c2ccccc2)CC(=O)N3)cc1", "note": "(stereo not drawn)", "activity change, negative = inhibition": "inactive: 34.2%"}
{"compound": "CC(=O)c1ccc(NC(=O)c2ccc3nc(-c4ccco4)c(-c4ccco4)nc3c2)cc1", "Potency": "active: 11.7 µM"}
{"compound": "Cc1ccc(NC(=O)CN(C)C(=O)c2cc(-c3cccs3)nn2-c2ccccc2)cc1", "Potency": "inconclusive [inhibitor, single point]"}
{"compound": "COc1ccc(/C=N/NC(=O)c2cc(-c3cccnc3)nc3ccccc23)c(OC)c1", "activity change, negative = inhibition": "inactive: 3.86%"}
{"compound": "CC(C)N1CC2=C(OC(N)=C(C#N)C2c2cccnc2)/C(=C/c2cccnc2)C1", "note": "(stereo not drawn)", "Potency": "inconclusive [inhibitor, full curve, poor fit]"}
{"compound": "CCNc1nc(NCC)nc(N(CC)C(N)=S)n1", "activity change, negative = inhibition": "inactive: 2.36%"}
{"compound": "COc1cc(C(=O)N2CCN(c3cccc(C)c3C)CC2)cc(OC)c1OC", "Potency": "inconclusive [inhibitor, partial curve]"}
{"compound": "COc1ccc(NS(=O)(=O)c2cc(NC(=O)c3ccc(C)s3)ccc2N2CCOCC2)cc1", "Potency": "inconclusive [inhibitor, single point]"}
{"compound": "COc1ccc(C(=O)N/N=C(\\C)CC(=O)Nc2ccccn2)cc1OC", "activity change, negative = inhibition": "inactive: 15.3%"}
{"compound": "CCN(Cc1ccc(NC(C)=O)cc1)CC1CCCN(CCc2cccc(OC)c2)C1", "note": "(stereo not drawn)", "Potency": "active: 11.7 µM"}
{"compound": "C/C(=N/Nc1nc(-c2ccccc2)cc(-c2ccccc2)n1)c1ccc(N)cc1", "Potency": "inconclusive [inhibitor, single point]"}
{"compound": "CNC(=O)CSc1nnc(-c2ccc(S(=O)(=O)N3CCCC3)cc2)n1-c1cccc(C)c1C", "Potency": "inconclusive [inhibitor, single point]"}
{"compound": "CCOC(=O)c1c(C)n(Cc2ccc(F)cc2)c2ccc(O)cc12", "Potency": "inconclusive [inhibitor, single point]"}
{"compound": "COc1ccc(S(=O)(=O)Nc2c(C)cccc2C)cc1-n1cnnn1", "activity change, negative = inhibition": "inactive: -2.76%"}
{"compound": "O=C(NCCNS(=O)(=O)c1ccccc1)c1cc(OCC(F)(F)F)ccc1OCC(F)(F)F", "Potency": "inconclusive [inhibitor, partial curve, poor fit]"}
{"compound": "CN(C)c1nc(N)nc(CSc2nnnn2-c2cccc3ccccc23)n1", "Potency": "inconclusive [inhibitor, partial curve, poor fit]"}
{"compound": "c1ccc(CSc2ncnc3c2sc2nc(N4CCOCC4)c4c(c23)CCCC4)cc1", "Potency": "inconclusive [inhibitor, single point]"}
{"compound": "CCOc1ccccc1NC(=S)N1CCN(c2nc(-c3cccc(OC)c3)cs2)CC1", "Potency": "inconclusive [inhibitor, single point]"}
{"compound": "O=C1CC(Nc2ccc(N3CCOCC3)cc2)C(=O)N1c1cccc(C(F)(F)F)c1", "note": "(stereo not drawn)", "Potency": "inconclusive [inhibitor, partial curve, poor fit]"}
{"compound": "COc1ccc(C(=O)NCc2nnc(SCC(=O)Nc3nc4ccccc4s3)o2)cc1", "activity change, negative = inhibition": "inactive: -0.714%"}
{"compound": "Cc1cc(C(=O)OCC(=O)N2CC(=O)Nc3ccccc32)c(C)n1-c1ccc(F)cc1", "Potency": "active: 4.65 µM"}
{"compound": "COc1ccc(-c2cc(C(=O)Nc3cc(C)nn3-c3ccccc3)no2)cc1OC", "Potency": "inconclusive [inhibitor, full curve, poor fit]"}
{"compound": "Cc1cc(-c2csc3nc[nH]c(=S)c23)cc(C)c1C", "Potency": "inconclusive [inhibitor, partial curve, poor fit]"}
{"compound": "COc1ccc(-c2nc3c(c(SCC(=O)N4CCOCC4)n2)Cc2c(CO)cnc(C)c2O3)cc1", "Potency": "inconclusive [inhibitor, partial curve, poor fit]"}
{"compound": "CC1CCCCN1CCCNc1ccc(C(CC(N)=O)NC(=O)Cc2cccc3ccccc23)cc1[N+](=O)[O-]", "note": "(stereo not drawn)", "Potency": "inconclusive [inhibitor, single point]"}
{"compound": "O=C1C=C(c2cccc3c2sc2ccccc23)C[C@@H](c2ccc(F)cc2)C1", "Potency": "inconclusive [inhibitor, single point]"}
{"compound": "CCOc1cc(CNc2ccc(S(N)(=O)=O)cc2)ccc1OCC(=O)NC(C)(C)C", "activity change, negative = inhibition": "inactive: 21%"}
{"compound": "O=C1N=C(N2CCOCC2)S/C1=C/c1cc2c(cc1[N+](=O)[O-])OCO2", "Potency": "inconclusive [inhibitor, full curve, poor fit]"}
{"compound": "CCOC(=O)C1(CCCc2ccccc2)CCN(C(=O)COC)CC1", "activity change, negative = inhibition": "inactive: -7.77%"}
{"compound": "O=C(COc1ccccc1)Nc1c(C(=O)N2CCC(N3CCCCC3)CC2)oc2ccccc12", "Potency": "inconclusive [inhibitor, partial curve, poor fit]"}
